Assay results published in the supplement of paper PMC10037445.
The full ranking holds about 2,900 compounds; the median of “IRF Lucia reporter activity, fold change vs agonist alone” is about 0.9, and the highest 2% start at about 2.8. The list shows a part of the results.

What was measured:
RAW-Dual [1] = test: IRF Lucia reporter activity, fold change vs agonist alone; higher = enhanced IRF activity; conditions: agonist: MPLA (TLR4) […]
Outline: (§1)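 Reporter activity is given as fold change relative to agonist-alone wells. To measure it, 50 nL of library stock was pin-tooled onto RAW-Dual macrophages (50,000 cells/well, DMEM, 384-well plates), a PRR agonist followed 1 h later, and cells stayed at 37 °C, 5% CO2. Twenty hours on, supernatant was assayed for IRF (QuantiLuc luminescence) and NF-κB (QuantiBlue, 620 nm absorbance), and wells under 70% of agonist-control IncuCyte confluency in both mask sets were marked cytotoxic.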

RAW-Dual [2] = test: IRF Lucia reporter activity, fold change vs agonist alone; cytotoxicity flag (confluency mask): cytotoxic (confluency <70% of control); higher = enhanced IRF activity
Outline: as §1

RAW-Dual [3] = test: IRF Lucia reporter activity, fold change vs agonist alone; cytotoxicity flag (confluency mask): not cytotoxic; higher = enhanced IRF activity
Outline: as §1

[4] = library stock concentration (final ~1000-fold dilution): 10 mM, cytotoxicity flag (confluency mask): cytotoxic (confluency <70% of control)
[5] = agonist: 3'3'-cGAMP (STING) 10 ug/mL
[6] = library stock concentration (final ~1000-fold dilution): 10 mM, cytotoxicity flag (confluency mask): not cytotoxic

Structure (SMILES): CC(C)(C)c1cc(C=C(C#N)C#N)cc(Br)c1O
- IRF Lucia reporter activity (RAW-Dual [1]; [4]): 0.904

Structure (SMILES): CC(C)[C@]12O[C@H]1[C@@H]1O[C@]13[C@]1(O[C@H]1C[C@H]1C4=C(CC[C@@]13C)C(=O)OC4)[C@@H]2O (library stock concentration (final ~1000-fold dilution): 10 mM)
- IRF Lucia reporter activity (RAW-Dual [2]; [5]): 0.0202
- IRF Lucia reporter activity (RAW-Dual [2]; agonist: LPS (TLR4) 0.1 ug/mL): 0.0168

Structure (SMILES): COc1cc2c(c(OC)c1OC)-c1ccc(OC)c(=O)cc1C(NC(C)=O)CC2 (centres undefined) (library stock concentration (final ~1000-fold dilution): 10 mM)
- IRF Lucia reporter activity (RAW-Dual [3]; [5]): 0.104
- IRF Lucia reporter activity (RAW-Dual [3]; agonist: LPS (TLR4) 0.1 ug/mL): 1.6

Structure (SMILES): COc1cc2c(c(OC)c1OC)-c1ccc(OC)c(=O)cc1C(NC(C)=O)CC2 (centres undefined)
- IRF Lucia reporter activity (RAW-Dual [1]; [6]): 1.87

Structure (SMILES): O=C(c1ccccc1O)c1[nH]c(Cl)c(Cl)c1-n1c(C(=O)c2ccccc2O)cc(Cl)c1Cl (library stock concentration (final ~1000-fold dilution): 10 mM)
- IRF Lucia reporter activity (RAW-Dual [2]; [5]): 0.252
- IRF Lucia reporter activity (RAW-Dual [2]; agonist: LPS (TLR4) 0.1 ug/mL): 2.48

Structure (SMILES): O=C(c1ccccc1O)c1[nH]c(Cl)c(Cl)c1-n1c(C(=O)c2ccccc2O)cc(Cl)c1Cl
- IRF Lucia reporter activity (RAW-Dual [1]; [4]): 2

Structure (SMILES): O=C(O)C(=O)c1cn(Cc2ccccc2)c2ccc(-c3ccc(OC(F)(F)F)cc3)cc12 (library stock concentration (final ~1000-fold dilution): 10 mM)
- IRF Lucia reporter activity (RAW-Dual [3]; [5]): 0.879
- IRF Lucia reporter activity (RAW-Dual [3]; agonist: LPS (TLR4) 0.1 ug/mL): 1.14

Structure (SMILES): CC(C)=CCCC1(C)C=Cc2c(O)c3c(c(CC=C(C)C)c2O1)OC12C(=CC4CC1C(C)(C)OC2(C/C=C(/C)C(=O)O)C4=O)C3=O (centres undefined)
- IRF Lucia reporter activity (RAW-Dual [1]; [6]): 1.15

Structure (SMILES): CC(C)=CCCC1(C)C=Cc2c(O)c3c(c(CC=C(C)C)c2O1)OC12C(=CC4CC1C(C)(C)OC2(C/C=C(/C)C(=O)O)C4=O)C3=O (centres undefined) (library stock concentration (final ~1000-fold dilution): 10 mM)
- IRF Lucia reporter activity (RAW-Dual [3]; [5]): 0.969
- IRF Lucia reporter activity (RAW-Dual [3]; agonist: LPS (TLR4) 0.1 ug/mL): 0.0102

Structure (SMILES): CC12CCC3C(CCC45OC4C(O)=C(C#N)CC35C)C1CCC2O (centres undefined)
- IRF Lucia reporter activity (RAW-Dual [1]; [6]): 1.04

Structure (SMILES): CC12CCC3C(CCC45OC4C(O)=C(C#N)CC35C)C1CCC2O (centres undefined) (library stock concentration (final ~1000-fold dilution): 10 mM)
- IRF Lucia reporter activity (RAW-Dual [3]; [5]): 1.14
- IRF Lucia reporter activity (RAW-Dual [3]; agonist: LPS (TLR4) 0.1 ug/mL): 0.987

Structure (SMILES): O=c1c2ccccc2[se]n1-c1ccccc1 (library stock concentration (final ~1000-fold dilution): 10 mM)
- IRF Lucia reporter activity (RAW-Dual [3]; [5]): 0.18
- IRF Lucia reporter activity (RAW-Dual [3]; agonist: LPS (TLR4) 0.1 ug/mL): 0.28

Structure (SMILES): c1ccc2c(c1)Nc1ccccc1S2
- IRF Lucia reporter activity (RAW-Dual [1]; [6]): 1.14

Structure (SMILES): c1ccc2c(c1)Nc1ccccc1S2 (library stock concentration (final ~1000-fold dilution): 10 mM)
- IRF Lucia reporter activity (RAW-Dual [3]; [5]): 0.89
- IRF Lucia reporter activity (RAW-Dual [3]; agonist: LPS (TLR4) 0.1 ug/mL): 1.04

Structure (SMILES): O=C(O)C(=O)CBr
- IRF Lucia reporter activity (RAW-Dual [1]; [6]): 0.918

Structure (SMILES): O=C(O)C(=O)CBr (library stock concentration (final ~1000-fold dilution): 10 mM)
- IRF Lucia reporter activity (RAW-Dual [3]; [5]): 0.812
- IRF Lucia reporter activity (RAW-Dual [3]; agonist: LPS (TLR4) 0.1 ug/mL): 0.867

Structure (SMILES): CCNC(=O)CC1N=C(c2ccc(Cl)cc2)c2cc(OC)ccc2-n2c(C)nnc21 (centres undefined) (library stock concentration (final ~1000-fold dilution): 10 mM)
- IRF Lucia reporter activity (RAW-Dual [3]; [5]): 0.273
- IRF Lucia reporter activity (RAW-Dual [3]; agonist: LPS (TLR4) 0.1 ug/mL): 0.225

Structure (SMILES): CCNC(=O)CC1N=C(c2ccc(Cl)cc2)c2cc(OC)ccc2-n2c(C)nnc21 (centres undefined)
- IRF Lucia reporter activity (RAW-Dual [1]; [6]): 0.216

Structure (SMILES): CCNc1nc(Cl)nc(NC(C)C)n1
- IRF Lucia reporter activity (RAW-Dual [1]; [6]): 1.11

Structure (SMILES): CCNc1nc(Cl)nc(NC(C)C)n1 (library stock concentration (final ~1000-fold dilution): 10 mM)
- IRF Lucia reporter activity (RAW-Dual [3]; [5]): 1.01
- IRF Lucia reporter activity (RAW-Dual [3]; agonist: LPS (TLR4) 0.1 ug/mL): 1.25

Structure (SMILES): Cl[Te]1(Cl)(Cl)OCCO1.N (library stock concentration (final ~1000-fold dilution): 10 mM)
- IRF Lucia reporter activity (RAW-Dual [3]; [5]): 0.82
- IRF Lucia reporter activity (RAW-Dual [3]; agonist: LPS (TLR4) 0.1 ug/mL): 1.26

Structure (SMILES): CN1C2CCC1CC(OC(=O)C(CO)c1ccccc1)C2.CN1C2CCC1CC(OC(=O)C(CO)c1ccccc1)C2.O=S(=O)(O)O (centres undefined) (library stock concentration (final ~1000-fold dilution): 10 mM)
- IRF Lucia reporter activity (RAW-Dual [3]; [5]): 0.999
- IRF Lucia reporter activity (RAW-Dual [3]; agonist: LPS (TLR4) 0.1 ug/mL): 1.4

Structure (SMILES): CN1C2CCC1CC(OC(=O)C(CO)c1ccccc1)C2.CN1C2CCC1CC(OC(=O)C(CO)c1ccccc1)C2.O=S(=O)(O)O (centres undefined)
- IRF Lucia reporter activity (RAW-Dual [1]; [6]): 1.02

Structure (SMILES): Cn1cc(C2=C(c3cn(C4CCN(Cc5ccccn5)CC4)c4ccccc34)C(=O)NC2=O)c2ccccc21 (library stock concentration (final ~1000-fold dilution): 10 mM)
- IRF Lucia reporter activity (RAW-Dual [3]; [5]): 0.851
- IRF Lucia reporter activity (RAW-Dual [3]; agonist: LPS (TLR4) 0.1 ug/mL): 0.525

Structure (SMILES): Cn1cc(C2=C(c3cn(C4CCN(Cc5ccccn5)CC4)c4ccccc34)C(=O)NC2=O)c2ccccc21
- IRF Lucia reporter activity (RAW-Dual [1]; [6]): 0.847

Structure (SMILES): CNC1CC(N)C(O)C(OC2OC(CO)C(O)C3OC4(OC(C(N)CO)C(O)C(O)C4O)OC23)C1O (centres undefined) (library stock concentration (final ~1000-fold dilution): 10 mM water)
- IRF Lucia reporter activity (RAW-Dual [3]; [5]): 1.16
- IRF Lucia reporter activity (RAW-Dual [3]; agonist: LPS (TLR4) 0.1 ug/mL): 0.934

Structure (SMILES): CNC1CC(N)C(O)C(OC2OC(CO)C(O)C3OC4(OC(C(N)CO)C(O)C(O)C4O)OC23)C1O (centres undefined)
- IRF Lucia reporter activity (RAW-Dual [1]; library stock concentration (final ~1000-fold dilution): 10 mM water, cytotoxicity flag (confluency mask): not cytotoxic): 1.39

Structure (SMILES): N#CC(C#N)=Cc1ccc(O)c(O)c1 (library stock concentration (final ~1000-fold dilution): 10 mM)
- IRF Lucia reporter activity (RAW-Dual [3]; [5]): 0.674
- IRF Lucia reporter activity (RAW-Dual [3]; agonist: LPS (TLR4) 0.1 ug/mL): 1.21
